In PubChem BioAssay AID1159614 (National Center for Advancing Translational Sciences (NCATS), 2016):
In all, about 45,000 compounds went through this assay and about 65 (0.1%) were called active. Calls follow the shape of the dose curve; as a rule, active = well fitted activation curve with a large enough effect; inconclusive = small, poorly fitted or top-dose-only effect; inactive = no such curve, though single readings can be large or run the other way. The list shows a part of the results.

biological target: Galactocerebrosidase (Homo sapiens) (UniProt P54803); experiment: A Novel Cell-Based Assay to Identify Small Molecules for B -Galactocerebrosidase; conditions: 145M-Twi-hGALC-G270D cells (Twitcher mouse brain line with human GALC G270D), HMU-beta-Gal fluorescence, 48 h; series mostly up to 57.5 µM; activation: at the top concentration; also: 0% is about no effect; nearly all actives have a fitted effect of over 65% in size
Outline: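 Fluorescence readout: HMU-β-gal cleavage by mutant GALC (0.1 mM final, citrate/phosphate pH 5.2 with 1 mg/mL taurocholate), stopped with carbonate/bicarbonate plus Triton X-100. Cells: murine Twitcher 145M-Twi expressing human G270D GALC; qHTS for activators.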

Sequence of UniProt P54803 (P54803 whole entry, looked up): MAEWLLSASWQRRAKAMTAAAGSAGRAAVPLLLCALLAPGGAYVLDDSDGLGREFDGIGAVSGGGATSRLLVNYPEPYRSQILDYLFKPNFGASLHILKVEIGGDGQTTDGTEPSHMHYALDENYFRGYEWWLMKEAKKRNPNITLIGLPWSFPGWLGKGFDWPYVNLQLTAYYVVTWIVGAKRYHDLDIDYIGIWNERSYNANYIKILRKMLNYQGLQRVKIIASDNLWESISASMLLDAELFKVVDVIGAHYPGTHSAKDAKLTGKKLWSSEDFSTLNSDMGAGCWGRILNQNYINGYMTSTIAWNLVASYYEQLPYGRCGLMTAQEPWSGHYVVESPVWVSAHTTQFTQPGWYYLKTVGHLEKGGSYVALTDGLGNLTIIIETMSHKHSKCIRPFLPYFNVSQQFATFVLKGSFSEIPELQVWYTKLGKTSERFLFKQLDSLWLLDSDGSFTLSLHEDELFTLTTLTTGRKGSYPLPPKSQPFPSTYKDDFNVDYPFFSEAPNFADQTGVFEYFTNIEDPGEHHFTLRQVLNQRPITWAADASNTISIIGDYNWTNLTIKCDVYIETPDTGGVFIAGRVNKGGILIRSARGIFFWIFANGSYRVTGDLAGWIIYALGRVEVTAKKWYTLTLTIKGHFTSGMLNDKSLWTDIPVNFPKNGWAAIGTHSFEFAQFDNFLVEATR

activation, inactive:
CC1CCCN(C(=O)Cn2c(=O)oc3cc(S(=O)(=O)N4CCCCC4)ccc32)C1 (stereo unspecified) -23.2%, COc1ccc(OC)c(Nc2nc(-c3ccc(C)cc3)nc3ccccc23)c1 -23.2%, O=C(CC1N=C2c3ccccc3N=C(SCc3ccc(Cl)cc3)N2C1=O)NCCc1ccccc1 (stereo unspecified) -26.4%, CCOC(=O)c1c(C)[nH]c(C)c1S(=O)(=O)NCC(=O)Nc1cccc(C(F)(F)F)c1 -8.96%, O=C(CSc1nnc(NC(=O)NC2CCCCC2)s1)Nc1ccccc1F -9.65%, COc1ccccc1NC(=O)c1cc(S(=O)(=O)N(C)C2CCCCC2)ccc1F -5.61%, Cc1ccc(NC(=O)C(Cc2ccccc2)NS(=O)(=O)c2ccc3c(c2)oc(=O)n3C)c(Cl)c1 (stereo unspecified) -2.98%, COc1cc(C=C2CCC/C(=C\c3ccc(O)c(OC)c3)C2=O)ccc1O -16.1%, CCOC(=O)N1CCc2c(sc3c2c(=O)n(CCc2ccccc2)c(=O)n3Cc2cc(C)ccc2C)C1 -1.55%, COCCNC(=O)Cn1cc(S(=O)(=O)Cc2ccccc2Cl)c2ccccc21 -8.47%, CC1=C(C(=O)Nc2ccccc2C)C(c2cccnc2)n2nc(SCc3ccccc3)nc2N1 (stereo unspecified) -25.7%, COc1ccc(-n2c(=O)c3sc4ccccc4c3n(CC(=O)Nc3cccc(C)c3)c2=O)cc1 -6.47%, Cc1ccc(-c2nnc(Nc3ccc(Br)cc3)c3ccccc23)cc1S(=O)(=O)N1CCOCC1 -7.56%, CCN(CC)S(=O)(=O)c1ccc2c(c1)N(CC(=O)NCCc1ccc(OC)c(OC)c1)C(=O)CO2 -21.5%, CCOc1ccccc1NC(=O)c1cn(C2CCCC2)c(=O)c2c1c1ccccc1n2C -24.1%, COc1ccccc1NC(=O)C1=C(C)Nc2nc(SCc3ccccc3)nn2C1c1ccccn1 (stereo unspecified) -20.3%, COc1ccccc1CNc1nc2nc(C)c(Cl)c(C)n2n1 1.77%, COC(=O)c1c(NC(=O)c2cccc(OC)c2)sc2c1CCC(C(C)(C)C)C2 (stereo unspecified) 5.9%, CC1CCCN(S(=O)(=O)c2cc3c(cc2Cl)NC(=O)CO3)C1 (stereo unspecified) -4.26%, Cc1nnc(NC(=O)CSc2nccn2-c2cccc(Cl)c2)s1 -20.3%, Cc1nc2c(c(C)c1CCC(=O)Nc1cccc(C(F)(F)F)c1)c(=O)n(C)c(=O)n2C -18%, COc1ccc(-c2cc(=O)n3[nH]cnc3n2)cc1 -15%, O=C(CCC(=O)N1CC2CCCN2c2ccccc21)NCc1ccccc1Cl (stereo unspecified) -19.9%, COc1ccc(N2CCN(c3ccc(-c4nc(-c5ccccc5C)no4)cc3[N+](=O)[O-])CC2)cc1 -10.9%, Cc1ccc(NC(=O)N2CCC(N3CCN(Cc4ccccc4)C(=O)C3=O)CC2)cc1Cl 0.343%, Cc1cccc(-c2nc(SCC(=O)Nc3cc(C)on3)c3c(=O)n(C)c(=O)n(C)c3n2)c1 -8.34%, COCCCNC(=O)c1ccc2c(c1)N=C(C)c1c(C)ccc(C)c1S2 16.8%, Cc1cn2c(=O)cc(COc3ccc(C(C)(C)C)cc3)nc2s1 -24.4%, CC(C)CCn1c(SCc2c(F)cccc2Cl)nc2ccsc2c1=O -4.38%, CC(C)NC(=O)CCSc1nc(-c2ccc3c(c2)OCO3)cc(C(F)(F)F)n1 -19.9%, Cc1cccc(C)c1NC(=O)CSc1nc(-c2cccs2)cc(C(F)(F)F)n1 -15.3%, CN(c1nccc(=O)[nH]1)C1CCN(c2nc3ccccc3n2Cc2ccc(F)cc2)CC1 -11.6%, CCOc1ccccc1N(CC)C(=O)c1ccc2c(=O)n3c(nc2c1)CCCCC3 -30.6%, O=C(Nc1ccc(F)c(Cl)c1)C1CCCN(S(=O)(=O)c2cccc3nsnc23)C1 (stereo unspecified) -16.4%, CCOc1ccc2nc(NC(=O)c3nc(SC(C)C)ncc3Cl)sc2c1 -0.499%, CC1CCN(C(=O)Cn2c(=O)n(-c3ccc(Cl)cc3)c(=O)c3c4c(sc32)CCC4)CC1 -14.9%, C[N+](C)(C)CC(=O)O -11.9%, CCc1cccc2c(-c3ccccc3)nc(SCC(=O)Nc3ccc(OC)cc3)nc12 -1.26%, N#Cc1ccccc1Cn1c(SCC(=O)NCc2ccccc2)nc2ccccc21 -16.8%, CCOc1ccc(CCNC(=O)CSCc2nc(-c3cccc(C)c3)oc2C)cc1OCC -10.6%, Cc1cc2nn(-c3ccccc3)nc2cc1NC(=O)Cc1ccc(Cl)cc1 -11.3%, CC(C)N(Cc1ccccc1)S(=O)(=O)c1ccc(N2CCCCS2(=O)=O)cc1 4.74%, CN(C)S(=O)(=O)c1ccc(C(=O)N(Cc2cccnc2)c2nc3c(F)cc(F)cc3s2)cc1 -10.6%, O=C(O)c1ccccc1C(=O)Nc1ccc(S(=O)(=O)Nc2nccs2)cc1 0.826%, O=C(Cn1c(=O)c2cccn2c2ccc(F)cc21)NCc1cccc(Cl)c1 -5.26%, CCOc1ccc(NC(=O)c2sc3nc(-c4ccc(OC)cc4)cn3c2C)cc1 -11.7%, Cc1c(Cl)cccc1NC(=O)CSc1nc(=O)n(CCN2CCOCC2)c2c1CCC2 -10.9%, Cc1ccccc1NC(=O)Cn1c(=O)n(CCCCCC(=O)NCc2ccc3c(c2)OCO3)c(=O)c2sccc21 -15.5%, COc1ccc(-n2ccn(CC(=O)Nc3ccccc3C(F)(F)F)c(=O)c2=O)cc1OC -19.6%, CC(=O)N1CCc2c(sc3c2c(=O)n(CCc2ccccc2)c(=O)n3Cc2ccc(F)cc2)C1 -17.3%, COc1cc(NC(=O)C2CCCN(S(=O)(=O)c3cn(C)cn3)C2)cc(OC)c1 (stereo unspecified) -5.2%, COc1ccc(-c2nsc(NC(=O)c3ccccc3Br)n2)cc1 -7.38%, CCc1ccccc1NC(=O)CCc1c(C)nc2cc(-c3ccccc3)nn2c1C -7.64%, CCOc1ccc(NC(=O)CCS(=O)(=O)c2cc3c4c(c2)CCN4C(=O)CC3)cc1 -6.19%, Cc1ccc(Nc2ccc(N3CCN(C(=O)c4ccc([N+](=O)[O-])cc4Cl)CC3)nn2)cc1 -18.1%, CC(=O)Nc1ccc(NCc2nnc3n2CCCCC3)cc1 -8.88%, CCOC(=O)c1cc2c(=O)n3ccccc3nc2n(CC(C)C)c1=NC(=O)C(C)Oc1ccccc1 (stereo unspecified) -6.7%, O=C(NC1CC(=O)N(c2ccc(Cl)cc2)C1)C(=O)c1c[nH]c2ccccc12 (stereo unspecified) -0.575%, CC(=O)OC(C)OC(=O)C(C)c1ccc(-c2ccccc2)c(F)c1 (stereo unspecified) -9.34%, Cc1nnc(N2CCN(C(=O)Nc3cc(F)ccc3F)CC2)c2nn(-c3ccc(Cl)cc3)c(C)c12 -36.8%, Cc1cc(O)c(C(c2ccccc2)N2CCC(C)CC2)c(=O)n1Cc1ccco1 (stereo unspecified) -19.5%
